In the supplement of paper PMC11417369:
This is one part of the list.

These sequences were tested on PfSIP2 AP2 domain 1 (GST-tagged) (assay: gcPBM binding intensity (ln(normalized median fluorescence intensity)); higher = stronger DNA binding).
Summary of the method: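 DNA-binding domains from P. falciparum, fused to GST and produced in E. coli, were put on an Agilent 4 × 180k double-stranded probe array for 1 h in 1× PBS holding 1% milk, 0.2 mg/ml BSA, 0.5% salmon testes DNA and 0.03% Triton X-100. Probes were primer-extended, 36 bp long and drawn from intergenic genomic regions, with negative controls included. After Alexa488 anti-GST antibody detection and a 488 nm scan, binding intensity was set as the highest Masliner-normalised natural-log median intensity across replicate spots of either probe orientation.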

Row | Sequence | gcPBM binding intensity (ln)
1 | TAATACATAAATAATGTGCACATGGAAATATATCTT | 8.6
2 | TATTTTATATACAGTGGTACTTTTTTTTTTTTTTTT [XGTACX_site2475] | 7.56
3 | AAAAAAAAAAAAAAATCACACACAATATGAATTTAT [CACACA_site8100] | 7.07
4 | ACATATATATTATAAGCATGCATGAGAAAATTTTTA [TGCATGCA_site1054] | 7.09
5 | AATTGCTTCAAAATTAAACACACACTAATAAAAAAA [CACACA_site8855] | 7.11
6 | AAAAAAAAAAAAAAAACACACATTTGAAGAAAAAAA [CACACA_site7389] | 7.56
7 | AATAATAATAGAAACACACACACATTTTTAAGAATA [CACACA_site6692] | 6.74
8 | TGAAAAAAAAAATGCACACGCATACAGATAATATGT [CACACA_site4526] | 7.12
9 | ATTATTGCAATTTAATGTACATAATACAAATTTGCC [XGTACX_site2729] | 7.24
10 | AATGAATAAATAAACACACACACATATATATATATG [CACACA_site18] | 7.29
11 | TATATTCAAAAAAATTCATTTCTGATTTTTTTTTTT [CACACA_negctrl_site1085] | 6.52
12 | TATACGTATACCTATACACACATATATATATATATA [CACACA_site1273] | 9.17
13 | GATGAAATATCATTACGTACACAATAGTTTGTATTT [XGTACX_site5143] | 7.01
14 | TTATTAATTATATATAGTACACATTTCACAGATGGG [XGTACX_site2349] | 7.23
15 | TGAACACATACATACACACACACAAAAAAAAAAAAA [CACACA_site392] | 7.12
16 | AAAATTATGCAGTAGGTGCAATACCCTCGGCTTTTT [GTGCAC_site9556] | 9.06
17 | TTTTTTTTTTTTTTTGGTACACATTTTGGTTAATGG [XGTACX_site5109] | 6.88
18 | ATAAAAAGGTTTAAAAAAAAAAAAAAAAAAAAAAAA [CACACA_negctrl_site412] | 6.82
19 | AATATCTGAAAATAAAGTACAAACATATTATAAATA [XGTACX_site5738] | 6.82
20 | TATTTCAAATGTTATGTGCACATATTAATCCTACTT [GTGCAC_site9738] | 8.13
21 | AATAATAATTTAAAAAGTACATTCTAATAAACACGT [XGTACX_site1444] | 7.39
22 | TACTTATTTGATTGGGTGCATATATATAGTATGTAT [GTGCAC_site9845] | 10.6
23 | TTATTTATGAGGGTGACACACAAAAGAGTGTTAAGA [CACACA_site277] | 6.75

Row | Sequence | gcPBM binding intensity (ln)
24 | AAAAAAAAACACGCATGTACATAAAAATAATCATAC [XGTACX_site1086] | 7.05
25 | AAATAAAATAAAATAAAATAAAATAAAATAAAATAA [XGTACX_negctrl_site142] | 7.06
26 | TTCTTTGTAGTATATTAACACACAACTGTTTATAAT [CACACA_site9305] | 7.27
27 | CAAATCAAAATTAATTAACACACAATTTTAATATTC [CACACA_site8641] | 6.85
28 | TATAATGTTGATAATAGTACGTATGAGTTCAAAAAA [XGTACX_site988] | 7.2
29 | AAATAGAGAAATACAAGTACATACTAAACCAATCTA [XGTACX_site2780] | 6.78
30 | AAAGGATATAATACCATACACACATTTATAAAATAA [CACACA_site1931] | 6.9
31 | ACTTTTATTCGCTTACGTACATATATTATATATTAT [XGTACX_site4459] | 7.84
32 | AAAAGAAAATATATGTGTACTAAAATATATATATAT [XGTACX_site3817] | 9.22
33 | GTTTATTAAACATTAGTGCAATTTTAATCCATTCTA | 7.56
34 | TTTAAAGTAATAAAGTGTACAAAAATAAATTCAGCT [XGTACX_site8651] | 7.24
35 | TACCTACACTTTTGGAGTACAATTAAAAAAAAAAAA [XGTACX_site1403] | 7.42
36 | TATATATATATATAATGTACAGAAAAAAAAAAAAAA [XGTACX_site6141] | 8.91
37 | TTAATCCTTTTTAAAAGTACACATATATATATATAT [XGTACX_site962] | 9.53
38 | AAATCATGTTGAAGGGGTACAAAATATGTAATGTTG [XGTACX_site6222] | 7.06
39 | ATATTATATATTTGATGTACATTGAATGAGAGAGAA [XGTACX_site3324] | 7.75
40 | ATAATAAATGATAGCACACATATGTACATAAATACA [CACACA_site4634] | 7.36
41 | TATCTTAACAATTAGTGTACAGATAACCAATTAAAA [XGTACX_site3184] | 6.99
42 | AACATATAAAAATGTGCACACACACCCATATATATA [CACACA_site1525] | 9.1
43 | CTTTGTGGTATAGATACACACTATATTAAGATGAAC [CACACA_site5215] | 6.86
44 | TAAAATAAAAATATAGTGCACAGATTTTGATATTTT [GTGCAC_site9696] | 9.7
45 | CACATTATGTATCATACACACAAATAGATATATAAC [CACACA_site6434] | 7.11
46 | TGAAGGTTTCAAAAACGTACAAAAAAAAATGTTAGT [XGTACX_site8803] | 7.11

Row | Sequence | gcPBM binding intensity (ln)
47 | TTTTTTTTTTATGGTACACACACGCGTATGGTTGCA [CACACA_site1876] | 6.99
48 | TTTAGAAATAAATACACACATACATTTTTGTATACA [CACACA_site718] | 6.84
49 | AATAAATATATAAATACACACAAACATACAGATATA [CACACA_site6088] | 6.96
50 | TTTAAAAGATAAAGACTGCACTTTAAGCACACAAAT [GTGCAC_site9752] | 8.74
51 | AATTCCTATAATGAGAGTACGCATTAGAACAGTAGG [XGTACX_site5721] | 7.17
52 | TTGATAAAAAAAAAAAAATAAAAAAAAAATAAAAAA [XGTACX_negctrl_site480] | 6.63
53 | AAATTGTAGAAGCGTATTTCTCGAACTGGATGAATA [CACACA_negctrl_site1373] | 6.87
54 | AATTAATGGAAACAAGTCAAATGATCTTTATGCATA [TGCATGCA_negctrl_site540] | 6.66
55 | TTTATATCGACTCTTCTTTATATAAGTTGTGATGTT [TGCATGCA_negctrl_site362] | 6.81
56 | TAAAGTGTAAAGAAGGTGCTCATTATTTATTTTTTT | 7.62
57 | AGTTTCCTTGAGAAAAGTACGTAATACTACATATAT [XGTACX_site818] | 6.87
58 | TTTATATTAGGTCTTGAACGATTTTCATCATTATTA [TGCATGCA_negctrl_site100] | 6.73
59 | ATATGATATATTTTATGTACATATAAAACATATATA [XGTACX_site4297] | 7.23
60 | TTATACTTTTTTTCTTGGTGTAGAAAAAAAAGTTAG [CACACA_negctrl_site1207] | 7.08
61 | AAAAAAGAAACAAACACACATACATACAAACAAACA [CACACA_site142] | 7.08
62 | AAAATTTAATATAATGCACACATAAAAAAAAATTCA [CACACA_site8640] | 7.09
63 | TCCTGCCTCTCTTTGGTGCGTTGTAACCCTCGAGGA | 8.85
64 | ATATTAATATACATATGTACATATATATATATATAT [XGTACX_site7425] | 8.88
65 | TAAATTATTTATAAAGCACACAAGAAAAAATAAAAT [CACACA_site2132] | 7.38
66 | TAAAGGCAAACAAACACACACACATATATACATATA [CACACA_site2123] | 6.86
67 | CCAATACTGTTTAAATGTACAAGTAGGAGGTTAATT [XGTACX_site7260] | 6.95
68 | AAAAATTAACAAAAGGTGCAAACAAATAGTGGTTTT [GTGCAC_site9998] | 10.8
69 | AAAAAAGTAAAAAGTGCATGTAAAATATAAGTATCT [TGCATGCA_site55] | 8.99

Row | Sequence | gcPBM binding intensity (ln)
70 | TTTTTTTTTTATTTTGCACACTTCTAATTTAGTTGT [CACACA_site3429] | 7.56
71 | GTTATTCTTAATTTTTGTACACATTTTTATATTATT [XGTACX_site7227] | 7.67
72 | ATATATATGTATATGTGTACTTATATTTGTCATTTT [XGTACX_site1317] | 7.11
73 | AAAAAAATTAAACACACACACACATATATATATATA [CACACA_site4718] | 9.42
74 | GAACAAAAGGAATGTTGTACATAAAAAATGAAAAAT [XGTACX_site3929] | 7.04
75 | AAAAAAAAAAAAAAAAGGGGGGGAGGGATTGAAAAA [CACACA_negctrl_site193] | 8.54
76 | ACAGTATTTCGAGATGGTACACATATATATATATAT [XGTACX_site6880] | 9.67
77 | AATGAGGATATATACACACATACATTAAAAAAATAT [CACACA_site1849] | 7.08
78 | ATGAGTTACATGGGAAAAATATATATATATATATAT [CACACA_negctrl_site579] | 9.42
79 | TGATAAATATGGAGCACACACACATAAACATACATA [CACACA_site420] | 7
80 | TTGTTGTATTATTTATGTACATATGTATATGTATAT [XGTACX_site1315] | 7.17
81 | TTTAAAAGATAAAACACACATACTAATAAAAAACAA [CACACA_site2556] | 7.39
82 | TTGTATCCTTAATGCATGCACCAAATAACAAAAGTA | 10.6
83 | ACATATATAAAATAATGTACATTTTTAAGAATGCGT [XGTACX_site7654] | 7.13
84 | ATTATAATTGCATATACACACAAAGGTTCATAACAA [CACACA_site7440] | 7.32
85 | TATAATAAAATATGTACACACATACACCCATATATA [CACACA_site4808] | 7.13
86 | ACAAGTAATTAAGAGTGTACATAACTATAAATCCAA [XGTACX_site5215] | 7.03
87 | TGTATGTATGTATTATTTGTTATTTTAATTTTTTTG [TGCATGCA_negctrl_site256] | 7.43
88 | AAAAATGATATGAGTTGTACATAAGTAAGAATTATT [XGTACX_site7089] | 6.82
89 | TAAAAACGATTTTTTGCACACACATAATAAGCAGAA [CACACA_site3870] | 7.96
